Test results from patent US20210238308A1 (Chugai, published 2021).

Legend:
[1] = biological target: T1, human FcRn (human, UniProt P55899 partial chain; P61769 partial chain, limits assumed); assay: SPR pH 6.0, Ab captured on Protein L, 1 uM hFcRn
T1 construct: also called hFcRn

[2] = biological target: T2, mouse TRIM21 PRYSPRY domain with N-terminal 6xHis tag (mouse); assay: SPR, Ab captured on Protein L, 100 nM mTRIM21
T2 construct: Expressed from pET28a in E. coli; also called mTRIM21
T2 chain: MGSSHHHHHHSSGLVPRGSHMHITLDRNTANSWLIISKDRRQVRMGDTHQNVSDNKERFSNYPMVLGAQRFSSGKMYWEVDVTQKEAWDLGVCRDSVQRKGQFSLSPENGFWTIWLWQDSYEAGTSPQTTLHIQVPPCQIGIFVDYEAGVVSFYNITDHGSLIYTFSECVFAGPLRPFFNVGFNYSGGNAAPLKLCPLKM

[3] = biological target: T3, human TRIM21 PRYSPRY domain with N-terminal 6xHis tag (human); assay: SPR, Ab captured on Protein L, 100 nM hTRIM21
T3 construct: Expressed from pET28a in E. coli; also called hTRIM21
T3 chain: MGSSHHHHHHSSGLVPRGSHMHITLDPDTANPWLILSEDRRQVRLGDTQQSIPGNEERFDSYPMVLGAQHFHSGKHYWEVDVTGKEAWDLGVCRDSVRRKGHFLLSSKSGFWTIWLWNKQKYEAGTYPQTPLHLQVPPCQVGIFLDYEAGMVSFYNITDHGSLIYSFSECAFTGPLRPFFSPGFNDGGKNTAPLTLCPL

T1 sequence (P55899 24-290 limits assumed, form in doubt, chain 1 of 2): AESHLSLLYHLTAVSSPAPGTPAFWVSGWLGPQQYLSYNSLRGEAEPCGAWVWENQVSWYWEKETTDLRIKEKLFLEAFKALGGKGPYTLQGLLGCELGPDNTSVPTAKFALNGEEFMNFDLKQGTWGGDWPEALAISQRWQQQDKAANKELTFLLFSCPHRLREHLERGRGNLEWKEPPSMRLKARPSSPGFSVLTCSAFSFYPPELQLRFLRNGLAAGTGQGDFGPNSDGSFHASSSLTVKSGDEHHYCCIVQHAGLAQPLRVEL
T1 sequence (P61769 21-119 limits assumed, form in doubt, chain 2 of 2, further chain): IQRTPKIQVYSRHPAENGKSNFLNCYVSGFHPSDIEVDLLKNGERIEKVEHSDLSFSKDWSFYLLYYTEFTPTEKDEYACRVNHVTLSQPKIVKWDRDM

B1: MRAH-G1d/MRAL-KT0 T437K (antibody, human IgG1, kappa)
heavy: QVQLQESGPGLVRPSQTLSLTCTVSGYSITSDHAWSWVRQPPGRGLEWIGYISYSGITTYNPSLKSRVTMLRDTSKNQFSLRLSSVTAADTAVYYCARSLARTTAMDYWGQGSLVTVSS[human IgG1 constant region with T437K (EU numbers) omitted here]
light: DIQMTQSPSSLSASVGDRVTITCRASQDISSYLNWYQQKPGKAPKLLIYYTSRLHSGVPSRFSGSGSGTDFTFTISSLQPEDIATYYCQQGNTLPYTFGQGTKVEIKRTVAAPSVFIFPPSDEQLKSGTASVVCLLNNFYPREAKVQWKVDNALQSGNSQESVTEQDSKDSTYSLSSTLTLSKADYEKHKVYACEVTHQGLSSPVTKSFNRGEC
Q: Which “hFcRn binding level ratio (variant/control antibody)” value [1] does the source give for B1 here?
A: 0.96

Q: What about the “mTRIM21 binding level ratio (variant/control antibody)” value [2] of the same binder?
A: 2.18

Q: And the “hTRIM21 binding level ratio (variant/control antibody)” value [3]?
A: 0.11

B2: MRAH-G1d/MRAL-KT0 T437Q (antibody, human IgG1, kappa)
heavy: QVQLQESGPGLVRPSQTLSLTCTVSGYSITSDHAWSWVRQPPGRGLEWIGYISYSGITTYNPSLKSRVTMLRDTSKNQFSLRLSSVTAADTAVYYCARSLARTTAMDYWGQGSLVTVSS[human IgG1 constant region with T437Q (EU numbers) omitted here]
light: B1 light
Q: B2 was tested. Which “hFcRn binding level ratio (variant/control antibody)” value [1] did it give?
A: 0.98

Q: What about the “mTRIM21 binding level ratio (variant/control antibody)” value [2] of the same binder?
A: 2.16

Q: And the “hTRIM21 binding level ratio (variant/control antibody)” value [3]?
A: 0.634

B3: MRAH-G1d/MRAL-KT0 T437L (antibody, human IgG1, kappa)
heavy: QVQLQESGPGLVRPSQTLSLTCTVSGYSITSDHAWSWVRQPPGRGLEWIGYISYSGITTYNPSLKSRVTMLRDTSKNQFSLRLSSVTAADTAVYYCARSLARTTAMDYWGQGSLVTVSS[human IgG1 constant region with T437L (EU numbers) omitted here]
light: B1 light
Q: Which results are given for B3?
A: hFcRn binding level ratio (variant/control antibody) [1]: 0.86; mTRIM21 binding level ratio (variant/control antibody) [2]: 2.15; hTRIM21 binding level ratio (variant/control antibody) [3]: 0.233

B4: MRAH-G1d/MRAL-KT0 T437Y (antibody, human IgG1, kappa)
heavy: QVQLQESGPGLVRPSQTLSLTCTVSGYSITSDHAWSWVRQPPGRGLEWIGYISYSGITTYNPSLKSRVTMLRDTSKNQFSLRLSSVTAADTAVYYCARSLARTTAMDYWGQGSLVTVSS[human IgG1 constant region with T437Y (EU numbers) omitted here]
light: B1 light
Q: Which results are given for B4?
A: hFcRn binding level ratio (variant/control antibody) [1]: 0.84; mTRIM21 binding level ratio (variant/control antibody) [2]: 2.27; hTRIM21 binding level ratio (variant/control antibody) [3]: 0.746

B5: MRAH-G1d/MRAL-KT0 T437S (antibody, human IgG1, kappa)
heavy: QVQLQESGPGLVRPSQTLSLTCTVSGYSITSDHAWSWVRQPPGRGLEWIGYISYSGITTYNPSLKSRVTMLRDTSKNQFSLRLSSVTAADTAVYYCARSLARTTAMDYWGQGSLVTVSS[human IgG1 constant region with T437S (EU numbers) omitted here]
light: B1 light
Q: B5 was tested. Which “hFcRn binding level ratio (variant/control antibody)” value [1] did it give?
A: 0.97

Q: And the “mTRIM21 binding level ratio (variant/control antibody)” value [2]?
A: 2.52

Q: And the “hTRIM21 binding level ratio (variant/control antibody)” value [3]?
A: 0.852

B6: MRAH-G1d/MRAL-KT0 T437R (antibody, human IgG1, kappa)
heavy: QVQLQESGPGLVRPSQTLSLTCTVSGYSITSDHAWSWVRQPPGRGLEWIGYISYSGITTYNPSLKSRVTMLRDTSKNQFSLRLSSVTAADTAVYYCARSLARTTAMDYWGQGSLVTVSS[human IgG1 constant region with T437R (EU numbers) omitted here]
light: B1 light
Q: How did the “hFcRn binding level ratio (variant/control antibody)” value [1] turn out when B6 was run?
A: 0.94

Q: And the “mTRIM21 binding level ratio (variant/control antibody)” value [2]?
A: 2.25

Q: What about the “hTRIM21 binding level ratio (variant/control antibody)” value [3] of the same binder?
A: 0.068
